Among the data in PubChem BioAssay AID488969 (Vanderbilt High Throughput Screening Facility, 2010) are z-score values, retold here.

In all, about 110,000 compounds were measured (“z-score”: median about -0.1, highest 2% from about 2 on). This is one part of the list. Active and inactive are the calls of the source.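 Rule for the calls: active = z-score in the third read window above 3 or below -3; inactive = the rest.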

The assay has as its target Metabotropic glutamate receptor 8 (Rattus norvegicus) (UniProt P70579). Description: rat mGluR8 modulators via GIRK flux, primary screen, cell-based, thallium flux, HTS (AID 488969). To be noted: HEK293 rat mGluR8, GIRK (G protein-gated inwardly rectifying potassium channel) thallium flux, FluoZin2; at 10 µM; stronger effect = higher value; submaximal glutamate (EC20) added with thallium.
Chain of UniProt P70579 (P70579 whole entry, looked up): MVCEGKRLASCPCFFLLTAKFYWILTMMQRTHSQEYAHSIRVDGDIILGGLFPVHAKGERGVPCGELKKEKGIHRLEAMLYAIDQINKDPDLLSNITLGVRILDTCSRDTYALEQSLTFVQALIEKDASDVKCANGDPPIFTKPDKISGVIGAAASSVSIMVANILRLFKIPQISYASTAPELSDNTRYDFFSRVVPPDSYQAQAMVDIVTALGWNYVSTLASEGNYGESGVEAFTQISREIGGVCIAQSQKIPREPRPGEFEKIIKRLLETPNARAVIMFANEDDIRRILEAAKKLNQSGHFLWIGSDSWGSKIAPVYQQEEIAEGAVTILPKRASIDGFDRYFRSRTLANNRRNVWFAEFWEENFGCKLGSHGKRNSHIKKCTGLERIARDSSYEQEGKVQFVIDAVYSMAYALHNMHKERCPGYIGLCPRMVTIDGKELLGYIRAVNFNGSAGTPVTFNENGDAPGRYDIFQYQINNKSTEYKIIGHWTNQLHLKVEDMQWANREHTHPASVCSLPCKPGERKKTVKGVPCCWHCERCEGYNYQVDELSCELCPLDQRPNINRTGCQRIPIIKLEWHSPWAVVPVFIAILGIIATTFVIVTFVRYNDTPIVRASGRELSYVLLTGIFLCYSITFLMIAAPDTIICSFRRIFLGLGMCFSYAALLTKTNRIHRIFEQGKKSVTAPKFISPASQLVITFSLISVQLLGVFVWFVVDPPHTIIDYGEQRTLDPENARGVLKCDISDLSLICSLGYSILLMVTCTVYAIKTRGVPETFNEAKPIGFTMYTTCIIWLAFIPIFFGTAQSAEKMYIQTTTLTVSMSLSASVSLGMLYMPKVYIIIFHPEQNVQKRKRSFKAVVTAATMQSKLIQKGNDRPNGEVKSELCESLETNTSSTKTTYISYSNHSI
`Cn1ncc(C#N)c1NC(=O)C1CC(c2ccc(Cl)cc2)=NO1` (stereo unspecified) gave a z-score of -0.446.

Molecule `CCCS(=O)(=O)N1CCC(C(=O)N2CCC(Cc3ccccc3)CC2)CC1` displayed a z-score of -0.0167.

Take `CC(=O)Nc1sc2c(c1CN1CCN(c3ccccn3)CC1)CCCC2`: the z-score is -0.452.

In turn, `CC(C)C(NC(=O)COc1ccc2ccccc2c1)C(=O)N/N=C/C=C/c1ccccc1` (stereo unspecified) registered a z-score of -0.0376.

As for `Cc1cc(C(=O)Nc2sc(C)c(C)c2C#N)no1`, the z-score amounted to 1.33.

`O=C(NCC1CCCO1)NC1(C(F)(F)F)Oc2ccccc2O1` (stereo unspecified) came in with a z-score of 0.0113.

Molecule `COc1cccc(C(=O)Nc2cc(NC(=O)c3ccco3)ccc2OC)c1` showed a z-score of -0.489.

`CCCSc1nc2c(cnn2-c2ccc(C)cc2)c(=O)[nH]1` yielded a z-score of -0.413.

Consider `Cc1ccc(C(=O)O)cc1S(=O)(=O)NCC1CCCO1` (stereo unspecified), for which the z-score is -0.726.

In turn, `COc1ccc(NC(=O)c2ccc(COc3ccccc3)o2)cc1` yielded a z-score of -0.00337.

For the molecule `COC1CCCCC1Nc1cc(C)cc(C)c1` (stereo unspecified), the z-score is -0.0687.

On to `O=C(O)c1cnc(-c2ccccc2)nc1Sc1ccccc1Cl`, for which the z-score was active: -4.52.

`Cc1nc(-c2cccc(S(=O)(=O)N3CCCCCC3)c2)cs1` displayed a z-score of -0.195.

In turn, `COc1cc(-c2nc(S(=O)(=O)c3ccc(C)cc3)c(N(C)C)o2)cc(OC)c1OC` returned a z-score of -0.304.

`Cc1cccc2nc(CSc3nc4ccc([N+](=O)[O-])cc4[nH]3)cn12` registered a z-score of -0.276.

In the case of `COc1ccc(C)cc1S(=O)(=O)Nc1ccccc1C`, the z-score is -0.428.

Molecule `CCOc1nc(C)ccc1-c1noc(CC)n1` registered a z-score of -0.223.

`CC(=O)c1cc(C#N)c(SCc2ccccc2)nc1C` yielded a z-score of -0.00473.

In turn, `CCOc1cc(NS(=O)(=O)c2ccccc2)c(OCC)cc1NC(=O)c1ccco1` yielded a z-score of -0.135.

The molecule `CCC(=O)OCCn1c(Br)nc2c1c(=O)[nH]c(=O)n2C` gave a z-score of -0.265.

Consider `COc1ccc(CNC(=O)C2CCN(C(=O)N(C)C)CC2)c(OC)c1`, for which the z-score is 0.302.

`Cc1cccc(CCNC(=O)CCc2nc(-c3ccccc3F)no2)c1` registered a z-score of 0.68.

In turn, `COc1ccc(Cc2nnc(SCC(=O)Nc3ncc(C)s3)o2)cc1` returned a z-score of 0.0295.

The molecule `CC(=O)c1ccc(Nc2c3c(c(C#N)c4nc5ccccc5n24)CCC3)cc1` yielded a z-score of -0.15.

`Cc1ccc(/C=C2/NC(=O)N(c3ccccc3)C2=O)o1` registered a z-score of 0.187.

The molecule `COC(=O)C1=C(C)N(C)C(C)=C(C(=O)OC)C1c1ccc(C(=O)OC)cc1` registered a z-score of -0.73.

The molecule `CCOC(=O)C1CCCN(C(=O)c2cnn3c(C(F)F)cc(-c4ccc(C)cc4)nc23)C1` (stereo unspecified) returned a z-score of -0.0995.

With `COc1ccc(Oc2nc(C)nc3c2oc2ccccc23)cc1`, the z-score is -0.407.

`CCC(C)[C@H](NC(=O)NCCCc1ccccc1)C(=O)OC` (stereo partly specified): the z-score was -0.43.

On to `COc1cc(OC)c(OC)cc1/C=N/NC(=S)NCC1CCCO1` (stereo unspecified), for which the z-score was 0.146.

In turn, `COC(=O)c1cc(NC(=O)Nc2ccccc2OC)cc(C(=O)OC)c1` had a z-score of -0.192.

Molecule `Nc1nc(SCC(=O)NN(c2ccccc2)c2ccccc2)n[nH]1` returned a z-score of -0.0519.

As for `O=[N+]([O-])c1cc(S(=O)(=O)N2CCCC2)ccc1N/N=C1/CCCc2ccccc21`, the z-score is -0.262.

Molecule `Cc1cc(C)n(C(=O)CNc2ccccc2Cl)n1` gave a z-score of 0.0593.

The molecule `Cc1ccc(C(=O)NCC(C)(C)N2CCOCC2)s1` returned a z-score of 0.515.

`CCCNc1cc(=O)n(C)c(=O)n1C` showed a z-score of -0.217.

Regarding `Cc1ccc(-c2cc(-c3nnc(SCC(=O)NCC(C)C)n3N)c3ccccc3n2)cc1`, the z-score was -0.605.

Molecule `COC(=O)c1sc(N2C(=O)C(O)=C(C(=O)c3ccc(C)o3)C2c2ccc(F)cc2)nc1C` (stereo unspecified) gave a z-score of -0.787.

As to `CC(C)(C)c1ccc(NC(=O)CSc2nnc(-c3n[nH]c4ccccc34)o2)cc1`, the z-score was -0.181.

Regarding `O=C(COc1ncnc2c(Cl)cc(Cl)cc12)NCCC1=CCCCC1`, the z-score is -0.073.

The molecule `CCCCOCCCNC(=O)CN1C(=O)c2ccccc2C1=O` returned a z-score of 0.016.

In the case of `CC(Oc1ccccc1)c1ccnn1S(=O)(=O)c1ccccc1` (stereo unspecified), the z-score was -0.666.

Molecule `Cc1ccc(N2CCN(C(=O)c3ccccc3NC(=O)C3CC=CCC3C(=O)O)CC2)cc1` (stereo unspecified) registered a z-score of -0.339.

The molecule `CC(=O)NCCc1ccc(S(=O)(=O)N2CCCC2)cc1` came in with a z-score of -0.316.

In turn, `Cc1ccccc1NC(=O)NC1(C(=O)NCCCN2CCOCC2)CCCCC1` had a z-score of -0.494.

`C=CCn1c(NC(=O)c2ccc(Br)o2)c(S(=O)(=O)c2ccccc2)c2nc3ccccc3nc21` registered a z-score of -0.0755.

`N#Cc1ccc(-n2nccc2-c2cnc3n(c2=O)CCS3)cc1` returned a z-score of 0.18.

For `CCOC(=O)C1=c2s/c(=C\c3cccnc3)c(=O)n2C(N)=C(C(=O)OC)C1c1cccnc1` (stereo unspecified), the z-score came out at 0.984.

For `CSc1ccc2[nH]c(=O)cc(C)c2c1`, the z-score was -0.124.

With `CCOC(=O)N1CCN(c2c(-c3ccc(C(C)C)cc3)c(=O)c2=O)CC1`, the z-score was -0.0283.

`CCn1c(-c2ccc(F)cc2)cnc1SCC(=O)N1CCCCC1C` (stereo unspecified): the z-score was -0.0837.

Molecule `CCOCCCn1cnc2c(c1=O)c1nc3ccccc3nc1n2-c1ccccc1` had a z-score of 0.113.

On to `CCOC(=O)c1ccccc1NC(=O)c1ccc(N(C)S(C)(=O)=O)cc1`, for which the z-score is -0.303.

Regarding `CC(=NCC1CCCO1)C1=C(O)CC(C)(C)CC1=O` (stereo unspecified), the z-score amounted to 0.0595.

Consider `CNC(=S)NNC(=O)c1cccn(Cc2cccc(Cl)c2)c1=O`, for which the z-score is -0.271.

`COc1ccccc1-n1cnc2c(c1=O)c1nc3ccccc3nc1n2-c1ccc(C)c(C)c1`: the z-score was -0.142.

Molecule `COC(=O)c1cccc(-n2nnnc2SCC(=O)Nc2nc3c(s2)CCCC3)c1` displayed a z-score of -0.637.

In turn, `O=C(Nc1ccc2c(c1)C(=O)N(c1ccccc1)C2=O)C1CCCO1` (stereo unspecified) yielded a z-score of -0.0825.

`Cc1ccc(NCCC(=O)c2ccc(Cl)c(Cl)c2)cc1` returned a z-score of -0.39.

For `COC(=O)C(Cc1c[nH]c2ccccc12)NC(=O)CNC(C)=O` (stereo unspecified), the z-score is -0.137.

Regarding `COC(=O)c1scc(C)c1N/N=C(\C)c1ccc(F)cc1F`, the z-score is -0.0374.

With `O=C(Nc1nc(-c2ccc(-c3ccccc3)cc2)cs1)c1cnccn1`, the z-score amounted to 0.18.

On to `CC(OC(=O)c1nsc(Cl)c1Cl)C(=O)NC(C)(C)C` (stereo unspecified), for which the z-score came to 0.181.

Consider `Cc1ccccc1NS(=O)(=O)c1ccc(OCC(=O)NCc2ccco2)cc1`, for which the z-score is -0.304.

Turning to `O=C(NCCc1c[nH]c2ccccc12)Nc1cccc2ccccc12`, the z-score is -0.627.

Turning to `CC(C)NC(=O)c1cc2nc(-c3ccco3)cc(C(F)(F)F)n2n1`, the z-score was -0.419.

Consider `COc1cc(C(=O)Nc2ccc3c(c2)OCCO3)ccc1-n1cnnn1`, for which the z-score was -1.24.

`CC(C)OC(=O)CSc1nnc(-c2ccccc2)n1N` yielded a z-score of -0.106.

On to `CCS(=O)(=O)N1CCN(c2ccc([N+](=O)[O-])c(NC(C)c3ccccc3)c2)CC1` (stereo unspecified), for which the z-score is -1.02.

In turn, `O=C(CNS(=O)(=O)c1ccccc1)N1CCN(c2ccccc2)CC1` came in with a z-score of -0.0656.

As to `O=C(C[n+]1ccc(-c2nnc3n2CCC3)cc1)c1ccc(Cl)cc1`, the z-score was -0.128.
